The source of these data is patent US20250368735A1 (AKESO BIOPHARMA, published 2025).

Assay [1] concerns the target T1, CD47 on the cell membrane surface (CHO-K1-CLDN18.2-CD47 cells, 3T3-CD47 cells, human red blood cells, human T … (human, UniProt Q08722)).
T1 construct: whole, on cells; blood cells came from healthy human volunteers; also called cell membrane surface antigen CD47
Put plainly: flow cytometry on human PBMC, CD3-CD19+ B cells, anti-human IgG Fc-AF647. For orientation: In flow cytometry, cells or beads pass a laser one at a time.

In assay [2] the target is T2, CLDN18.2 on the cell membrane surface (CHO-K1-CLDN18.2 cells, CHO-K1-CLDN18.2-CD47 cells, CHO-K1-hClaudin18.2 … (human, UniProt P56856-2 1-261)).
T2 construct: whole, on cells; also called human Claudin18.2
As to the kind of experiment: flow cytometry (FACS) on CHO-K1-CLDN18.2 cells, PE anti-human IgG Fc.

Another assay deals with T3, CLDN18.2 His (human, UniProt P56856-2 1-261, limits assumed).
T3 construct: also called antigen CLDN18.2 His; human CLDN18.2; not shown: His tag
As to the kind of experiment: BLI (Fortebio Octet), antibody on AHC sensor, CLDN18.2 His 6.25-100 nM, 1:1 fit. The method, then: (§1) The affinity constant of the antibody for human CLDN18.2 and CD47 ECD-His was determined using a Fortebio Octer molecular interaction instrument. The sample dilution buffer was PBS (0.02% Tween-20, 0.1% BSA, pH 7.4). The method for detecting the affinity of the antibody for human CLDN18.2 is as follows. The antibody at 20 nM was immobilized on an AHC sensor for 60 s. The sensor was equilibrated in a buffer for 60 s, and the binding of the immobilized antibody on the sensor to CLDN18.2 His at concentrations of 6.25-100 nM (two-fold dilution) was determined for 180 s. The protein was dissociated in the buffer for 360 s. The method for detecting the affinity of the antibody to human CD47 ECD-His is as follows. The antibody at 30 nM was immobilized on an AHC sensor for 120 s. The sensor was equilibrated in a buffer for 60 s, and the binding of the immobilized antibody on the sensor to the protein CD47 ECD-His at concentrations of 4.94-400 nM (three-fold dilution) was determined for 50 s. The protein was dissociated in the buffer for 120 s. The shaking speed of the sample plate was 1000 rpm, the temperature was 30° C., and the frequency was 5.0 Hz. The data were analyzed by 1:1 model fitting to obtain affinity constants. The data acquisition software was Fortebio Data Acquisition 12.0, and the data analysis software was Fortebio Data Analysis HT 12.0.
For orientation: In BLI a coated tip is dipped into the sample, and binding shifts an interference pattern.

Assay [3] concerns the target T1, CD47 on the cell membrane surface …. As to the kind of experiment: competitive flow cytometry on CHO-K1-CLDN18.2-CD47 cells; competitor hSIRPaV2-hFc-mFc at 3 nM. The procedure: 100 μL of 1% PBSA was then added to each well, and the mixture was centrifuged and washed.
Assay [4] addresses T4, human CLDN18.2 (ELISA coating antigen) (human, UniProt P56856-2 1-261, limits assumed).
T4 construct: also called antigen human CLDN18.2
As to the kind of experiment: indirect ELISA, coated human CLDN18.2 2 µg/mL. The method, then: After blocking, the ELISA plate was washed 3 times with PBST. The ELISA plate containing the test antibodies was incubated at 37° C. for 30 min and then washed 3 times with PBST. […] The ELISA plate was put into a microplate reader immediately, and the OD value of each well in the ELISA plate was read at 450 nm. The data were analyzed and processed by SoftMax Pro 6.2.1.
(An ELISA detects its analyte on a solid surface through an enzyme-linked reagent.)

The target of the next assay is T5, CD47 IgV TEV-His (human, UniProt Q08722 in part).
T5 construct: range 19-141; also called human CD47 IgV TEV-His; not shown: his tag
Put plainly: indirect ELISA, coated CD47-Igv-TEV-his 2 µg/mL. The procedure: After blocking, the ELISA plate was washed 3 times with PBST. The ELISA plate containing the test antibodies was incubated at 37° C. for 30 min and then washed 3 times with PBST. […] The data were analyzed and processed by SoftMax Pro 6.2.1.

The target in another assay is T6, CD47 ECD-His (human, UniProt Q08722 in part, limits assumed).
T6 construct: extracellular domain; also called human CD47 ECD-His; not shown: His tag
Put plainly: BLI (Fortebio Octet), antibody on AHC sensor, CD47 ECD-His 4.94-400 nM, 1:1 fit. The method, then:
as §1

B1: AsAb-8C4703 (bispecific antibody, human IgG1, kappa)
chain: QVQLVQSGAEVVKPGASVKLSCKASGYTFTSYWMNWVRQRPGQCLEWIGMIDPSDSETHNAQKFQGKATLTVDKSTSTAYMHLSSLRSEDTAVYYCARLYRWYFDVWGAGTTVTVSSGGGGSGGGGSGGGGSGGGGSNIVMTQSPATMSMSPGERVTLSCRASEIVGTYVSWFQQKPGQAPRLLIYGASNRYTGVPARFSGSGSGTDFTLTISSVQPEDLADYHCGQSYNFPYTFGCGTKLEIK[omitted - human IgG1 Fc with changes]
heavy: EVQLVESGGGLVKPGGSLRLSCAASGFTFSNSAVSWVRQAPGKGLEWVSSITSGVSYTYYADSVKGRFTISRDNAKNSLYLQMNSLRAEDTAVYYCTRQFKGNALDYWGQGTSVTVSSASTKGPSVFPLAPSSKSTSGGTAALGCLVKDYFPEPVTVSWNSGALTSGVHTFPAVLQSSGLYSLSSVVTVPSSSLGTQTYICNVNHKPSNTKVDKKV[omitted - human IgG1 Fc with changes]
light: DIVMTQSPSSLSVSPGERVTISCKSSQSLLNSGNQKNYLAWYQQKPGQPPKLLIYWASTRESGVPDRFSGSGSGTDFTLTISSLQAEDVAVYYCQNDYFYPLTFGAGTKLELKRTVAAPSVFIFPPSDEQLKSGTASVVCLLNNFYPREAKVQWKVDNALQSGNSQESVTEQDSKDSTYSLSSTLTLSKADYEKHKVYACEVTHQGLSSPVTKSFNRGEC
notes: Three peptide chains; HC1 and HC2 linked by two hinge disulfide bonds, HC2 and L3 by one disulfide bond; Monovalent for CD47 (scFv arm) and for CLDN18.2 (Fab arm); also called anti-CLDN18.2/anti-CD47 bispecific antibody
On to B1, for which the EC50 in assay [1] is 24.1 nM; in assay [2], 10.6 nM; in assay [3], 10.1 nM; in assay [4], 0.021 nM; in the assay with CD47 IgV TEV-His, 0.164 nM. The Kd came to 1.5 nM with CLDN18.2 His and 21.7 nM with CD47 ECD-His. The koff with CLDN18.2 His turned out to be 5.18e-05 s⁻¹; in the assay with CD47 ECD-His, 0.0148 s⁻¹. In addition, the kon in the assay with CLDN18.2 His came out at 34600 M⁻¹ s⁻¹; with CD47 ECD-His, 682000 M⁻¹ s⁻¹.

What is called EC50 is the concentration at which the effect is half-maximal. Low values mean an effect from little substance, high ones a need for much substance. Usually Kd stands for the concentration at which binding is half-saturated. A higher Kd goes with lower affinity. The term koff denotes the first-order rate constant of dissociation. Low readings indicate a long-lived complex, high ones a short-lived complex. As usually defined, the kon is the second-order rate constant of association.
